# Measurements from patent US4585859A, “Analogues of morpholinyl daunorubicin and morpholinyl doxorubicin” (priority 1984, dated 1986).
# System: L1210 leukemia
# Conditions: ip L1210
compound,measurement,setting,value
"COc1cccc2c1C(=O)c1c(O)c3c(c(O)c1C2=O)C[C@@](O)(C(=O)CO)C[C@@H]3O[C@H]1C[C@H](N2CCOCC2)[C@H](O)[C@H](C)O1 [NSC 354646, 3'-deamino-3'-(4""-morpholinyl)doxorubicin]","Mouse Antitumor Efficacy at Optimum Dose, % T/C","d 1, ip",152%
same,Optimum Dose,"d 1, ip",0.05 mg/kg
same,"Mouse Antitumor Efficacy at Optimum Dose, % T/C","qd 1-9, ip",> 141%
same,Optimum Dose,"qd 1-9, ip",0.025 mg/kg

# Where two headings read alike, the source gives them in different places.
